{"source": "FireProtDB (doi:10.1002/bip.20645)", "details": "Gallus gallus, Thermal, DSC, reversible: Yes; for unfolding free energy: 27 °C", "note": "Several values for one entry are separate records, joined by “and”; a condition that tells them apart may be missing. Equal entries are not always repeated."}
{"substance": "Lysozyme C wild type (sequence left out)", "values": [{"measurement": "unfolding free energy", "setting": "pH 4, Acetate 50 mM", "result": "10.3 kcal/mol and 12.4 kcal/mol"}, {"measurement": "Tm", "setting": "pH 4, Acetate 50 mM", "result": "77 °C and 80 °C"}, {"measurement": "heat capacity change of unfolding", "setting": "pH 4, Acetate 50 mM", "result": "1.55 kcal/mol/K and 1.7 kcal/mol/K"}, {"measurement": "unfolding enthalpy (calorimetric)", "setting": "pH 4, Acetate 50 mM", "result": "113 kcal/mol and 130 kcal/mol"}, {"measurement": "unfolding free energy", "setting": "pH 4.5, Acetate 50 mM", "result": "9.99 kcal/mol and 11.8 kcal/mol"}, {"measurement": "Tm", "setting": "pH 4.5, Acetate 50 mM", "result": "77 °C and 79.2 °C"}, {"measurement": "unfolding enthalpy (calorimetric)", "setting": "pH 4.5, Acetate 50 mM", "result": "111 kcal/mol and 127 kcal/mol"}, {"measurement": "unfolding free energy", "setting": "pH 5, Acetate 50 mM", "result": "10 kcal/mol and 11.6 kcal/mol"}, {"measurement": "Tm", "setting": "pH 5, Acetate 50 mM", "result": "76.5 °C and 78.8 °C"}, {"measurement": "unfolding enthalpy (calorimetric)", "setting": "pH 5, Acetate 50 mM", "result": "111 kcal/mol and 125 kcal/mol"}, {"measurement": "unfolding free energy", "setting": "pH 5.5, Acetate 50 mM", "result": "9.58 kcal/mol and 11.8 kcal/mol"}, {"measurement": "Tm", "setting": "pH 5.5, Acetate 50 mM", "result": 75.7, "unit": "°C"}, {"measurement": "unfolding enthalpy (calorimetric)", "setting": "pH 5.5, Acetate 50 mM", "result": 108, "unit": "kcal/mol"}, {"measurement": "unfolding free energy", "setting": "pH 6.5, Phosphate 50 mM", "result": "9.32 kcal/mol and 11.2 kcal/mol"}, {"measurement": "Tm", "setting": "pH 6.5, Phosphate 50 mM", "result": "74 °C and 76.7 °C"}, {"measurement": "unfolding enthalpy (calorimetric)", "setting": "pH 6.5, Phosphate 50 mM", "result": "107 kcal/mol and 123 kcal/mol"}, {"measurement": "unfolding free energy", "setting": "pH 7, Phosphate 50 mM", "result": 9.01, "unit": "kcal/mol"}, {"measurement": "Tm", "setting": "pH 7, Phosphate 50 mM", "result": 73, "unit": "°C"}, {"measurement": "unfolding enthalpy (calorimetric)", "setting": "pH 7, Phosphate 50 mM", "result": 105, "unit": "kcal/mol"}, {"measurement": "unfolding free energy", "setting": "pH 7.5, Phosphate 50 mM", "result": 10.7, "unit": "kcal/mol"}]}
